Measured values published in the supplement of paper PMC3334620.
Whole data set: some 33,000 sequences, median “E-score (-0.5 to 0.5)” near -0.04, cut for the highest 2% near 0.36. This is one part of the list.

Biological target: T1, Hmlalpha2 (UniProt P0CY09)
T1 sequence: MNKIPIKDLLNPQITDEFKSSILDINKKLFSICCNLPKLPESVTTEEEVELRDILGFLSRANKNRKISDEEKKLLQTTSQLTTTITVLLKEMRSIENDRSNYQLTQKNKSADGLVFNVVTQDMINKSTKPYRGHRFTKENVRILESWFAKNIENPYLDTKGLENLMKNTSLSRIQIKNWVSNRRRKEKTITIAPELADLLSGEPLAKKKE
Test: PBM E-score (8-mer binding enrichment) (E-score (-0.5 to 0.5)); higher = stronger / more preferred TF binding; most listed sequences are background and not binding sites
Conditions: protein concentration: 200 nM; construct: GST-full length
Summary of the method: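 PURExpress in vitro transcription/translation supplied GST-tagged yeast transcription factors, either full-length or DNA-binding domain. Applied at about 100-200 nM to universal all-10-mer Agilent arrays double-stranded by primer extension, the bound protein was detected with fluorescent anti-GST. E-scores, modified Wilcoxon-Mann-Whitney statistics, were given by the Universal PBM Analysis Suite to ungapped eight-base words pooled with their reverse complements after masliner normalisation.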

Sequence | PBM E-score
ACTGTAGG | 0.0358
ACGAAGGA | -0.00764
GGACGCGA | -0.0509
AGCTGTAT | -0.027
ACCTTACC | 0.0897
CCGCTAGC | -0.337
TAGCAACA | 0.204
AGTGGTTG | 0.107
ACGGCGTG | 0.0339
CGAGTTTC | -0.0908
GAATAGCC | -0.332
GAAGGACC | -0.245
ATGAACAA | 0.156
AACAGCGA | -0.0401
GAGGCTAC | -0.193
AATAGGCA | -0.0175
CGAATGTC | 0.0317
AGTGCTTG | 0.11
AACATACG | 0.363
CTCTCCTA | 0.0238
ATTTGCCG | -0.0971
AATGCCCG | -0.274
AAGCACCA | -0.113
CCTCTGCC | -0.274
ACCAATAG | -0.129

Sequence | PBM E-score
CACTGGAA | -0.0941
AAGCTCGT | 0.0158
GAGCGAGA | -0.0406
ATTCTTTC | 0.0138
GACAAGCA | 0.0167
ACTGGAAA | 0.0244
GGCCTGAC | -0.316
ACATTAGG | 0.0208
GAGGCGAA | -0.175
CTTGACAA | 0.24
CGAGGGTC | -0.208
ATGTGGGA | -0.0345
GCTGTACA | 0.154
AATTTGCG | 0.0144
GAACATTC | 0.0675
ACAGAAGT | 0.0501
TCACCTGA | -0.136
ATCGATCA | -0.0362
CCGTAAAC | 0.199
CCATGGAC | -0.195
GCCAGCCC | -0.215
AGGCGACC | -0.0251
GATCATCA | -0.0693
ACGCCTCT | -0.0552
CGCCGATA | -0.141

Sequence | PBM E-score
ATCGCGCG | 0.0993
ACCGAAGC | -0.195
ACGAAGGC | -0.296
CCGCAGGA | -0.231
CGAGCCTC | -0.379
CCAAAAGA | 0.11
GGGTATGA | -0.0878
AGGCGAGC | -0.192
GTTAGCAA | 0.172
CACCGACG | 0.00164
CCCATAAG | -0.224
AGCCTCCT | -0.16
ACCCTAGG | -0.0831
AATGGCTA | -0.0433
CAACGCAA | 0.251
GGCGAACA | -0.0205
ACATGGGG | 0.276
GCTAACAC | 0.366
CGTCGTCC | -0.209
CCCGGCGG | -0.344
AAATGAGC | -0.0664
ATATCCAC | -0.0158
CGTACCTC | -0.243
AGGCGTAT | 0.177
ATTCGGCG | -0.193

Sequence | PBM E-score
AAATCAGC | 0.12
GAACAATC | -0.0347
CTTCGCCC | -0.319
CATGCAGG | -0.0438
GTTGAATA | 0.252
AGTGATGC | -0.108
ACCGGGCT | -0.171
AGATACAC | 0.265
ACTAATTA | 0.314
GATTCGAA | 0.0241
GCCGATCA | -0.0347
CACCATCC | -0.234
AGATTGCT | -0.0457
CATCACAC | 0.192
ATAGACAC | 0.196
TGGACCAA | 0.033
AGTTCCTC | -0.12
CCAACCGG | -0.199
ACTAGACG | 0.151
CACAAATG | 0.0315
GTACGGCA | -0.0357
GCGGACCC | -0.26
CAACGGAA | 0.0881
AAGATACA | 0.224
AAGAAGTA | 0.103

Sequence | PBM E-score
ATATGGGG | -0.302
CACCAAGC | -0.0969
AGAGAGCG | -0.134
GGTCTGTA | 0.00136
ATGGGGGC | -0.268
CAGTCCCC | -0.394
GTCACGGA | -0.176
CAGATTGG | -0.225
ATATGAAC | 0.168
CCAGTGAC | -0.125
ACCGGCAT | -0.215
AAGGCGAA | -0.309
GTCTGAAC | -0.155
AAGAATTC | -0.00323
ACGTTTTC | 0.115
ATTAAAAA | 0.249
AGGCAACC | -0.202
GTCCGGCA | -0.193
AAAGGCGC | 0.00069
TCAAGTCA | -0.0744
AACCAGGC | -0.0673
TCGTGAGA | -0.107
CTCGCACC | -0.114
CGTGAGAA | -0.0614
AACATTGA | 0.253

Sequence | PBM E-score
CCACTCGA | 0.0958
CGTGGGCA | -0.24
CGTATCGA | 0.077
CATGGCAC | -0.00277
CGCGGGAC | -0.201
CACTTCCG | -0.0589
AGGAATGA | 0.0575
GTGCGACA | 0.033
AGTTAGTC | -0.109
ACGCAAGT | 0.197
CATGGTAA | 0.304
AATTGCGC | 0.119
ACGTATAC | 0.266
CTTTCCAC | -0.137
AGTTAGGA | 0.0808
GGCTAGTA | 0.0692
ACTTCCCG | -0.159
ACCCTCGT | 0.0908
CTGGAGTC | -0.254
CTCCAAGA | -0.0615
CTACCGAA | -0.108
CGCCTAAC | -0.0908
ACCCCCCT | -0.282
CAACAATA | 0.287
AGGATTCA | -0.0484

Sequence | PBM E-score
TACTGTCA | -0.0966
TAACAGGA | 0.235
AACGAGTG | -0.0637
ATACTCCG | -0.0161
CACGCATC | 0.0743
CGAAATGC | 0.0303
GCCGATAC | -0.132
GCTAGTGA | -0.0471
CCGGTTAG | -0.122
AGTACCAC | 0.0083
ACCCTCAT | -0.24
CGGCGCAG | -0.0607
ATTTCGTA | 0.119
GGAGTTTA | 0.0431
AACGTTCC | -0.108
CTTGAGAA | 0.0948
GCTGGGTA | -0.0595
CCATTGAG | -0.0626
ACTTATGG | -0.214
AACAGTAT | 0.213
CCCCGCCC | -0.116
AACTTCTC | 0.0277
